The IC50 comes from the fitted curve, where viability falls to half of the control; a limit (>, <) means that the fit lies beyond the doses tested. AUC, from the same fit, is the share of area under the viability curve across the 256-fold dose range: 1 means no effect, lower means more sensitive. An inferred top dose was derived from the fitted curves, not read from the paper.
Experiments:
Assay in all cases: Viability of human cancer cell lines after 72 h of drug (GDSC screen)
SGC0946 = compound: CC(C)N(CCCNC(=O)Nc1ccc(C(C)(C)C)cc1)C[C@H]1O[C@@H](n2cc(Br)c3c(N)ncnc32)[C@H](O)[C@@H]1O [SGC0946]; conditions: top dose 0.5 µM; top dose inferred
Protocol: (§1)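 Human cancer cell lines in 384-well plates, medium with 10% serum, drug for 72 h over a 256-fold dose range (nine 2-fold or five 4-fold steps up to the top dose). Adherent lines were fixed and stained with the nucleic acid dye Syto60, suspension lines read with resazurin; signal relative to control wells, capped at 0 and 100%. One two-parameter sigmoid per drug and line, fitted in a mixed model over all curves with the slope shared within a line.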

GW-2580 = compound: COc1ccc(COc2ccc(Cc3cnc(N)nc3N)cc2OC)cc1 [GW-2580]; conditions: top dose 20 µM; top dose inferred
Protocol: as §1

Lenalidomide = compound: Nc1cccc2c1CN(C1CCC(=O)NC1=O)C2=O [Lenalidomide]; conditions: top dose 5 µM; top dose inferred
Protocol: as §1

Bryostatin 1 = compound: CCC/C=C/C=C/C(=O)O[C@H]1/C(=C/C(=O)OC)C[C@H]2C[C@H]([C@@H](C)O)OC(=O)C[C@H](O)C[C@@H]3C[C@H](OC(C)=O)C(C)(C)[C@](O)(C[C@@H]4C/C(=C/C(=O)OC)C[C@H](/C=C/C(C)(C)[C@]1(O)O2)O4)O3 [Bryostatin 1]; conditions: top dose 0.008 µM; top dose inferred
Protocol: as §1

Row | Cell Line | AUC (SGC0946) | IC50 (SGC0946) | AUC (GW-2580) | IC50 (GW-2580) | AUC (Lenalidomide) | IC50 (Lenalidomide) | AUC (Bryostatin 1) | IC50 (Bryostatin 1)
1 | TMK-1 (stomach, adherent) | 0.984 | > 0.5 µM | 0.964 | > 20 µM | 0.986 | > 5 µM | 0.878 | > 0.008 µM
2 | NCI-H1944 (lung adenocarcinoma, adherent) | 0.973 | > 0.5 µM | 0.982 | > 20 µM | 0.985 | > 5 µM | 0.937 | > 0.008 µM
3 | MDA-MB-436 (breast, adherent) | 0.981 | > 0.5 µM | 0.962 | > 20 µM | 0.983 | > 5 µM | 0.973 | > 0.008 µM
4 | FU97 (stomach, adherent) | 0.985 | > 0.5 µM | 0.971 | > 20 µM | 0.975 | > 5 µM | 0.971 | > 0.008 µM
5 | SCC-4 (head and neck, adherent) | 0.982 | > 0.5 µM | 0.979 | > 20 µM | 0.959 | > 5 µM | 0.984 | > 0.008 µM
6 | HuO9 (osteosarcoma, adherent) | 0.979 | > 0.5 µM | 0.973 | > 20 µM | 0.984 | > 5 µM | 0.979 | > 0.008 µM
7 | SW756 (cervix, adherent) | 0.982 | > 0.5 µM | 0.977 | > 20 µM | 0.978 | > 5 µM | 0.942 | > 0.008 µM
8 | SK-N-SH (neuroblastoma, adherent) | 0.985 | > 0.5 µM | 0.973 | > 20 µM | 0.967 | > 5 µM | 0.918 | > 0.008 µM
9 | RPMI-7951 (melanoma, adherent) | – | – | 0.984 | > 20 µM | 0.987 | > 5 µM | 0.908 | > 0.008 µM
10 | TYK-nu (ovary, adherent) | 0.983 | > 0.5 µM | 0.977 | > 20 µM | 0.985 | > 5 µM | 0.983 | > 0.008 µM
11 | SNU-423 (liver, adherent) | 0.981 | > 0.5 µM | 0.947 | > 20 µM | 0.983 | > 5 µM | 0.971 | > 0.008 µM
12 | CAKI-1 (kidney, adherent) | 0.971 | > 0.5 µM | 0.963 | > 20 µM | 0.974 | > 5 µM | 0.963 | > 0.008 µM
13 | UM-UC-3 (bladder, adherent) | 0.987 | > 0.5 µM | 0.979 | > 20 µM | 0.86 | 3.79 µM | 0.957 | > 0.008 µM
14 | HCC202 (breast, adherent) | 0.933 | > 0.5 µM | – | – | 0.981 | > 5 µM | 0.942 | > 0.008 µM
15 | HT-29 (large intestine, adherent) | 0.986 | > 0.5 µM | 0.983 | > 20 µM | 0.988 | > 5 µM | 0.984 | > 0.008 µM
16 | IGR-37 (melanoma, adherent) | 0.988 | > 0.5 µM | 0.988 | > 20 µM | 0.983 | > 5 µM | 0.923 | > 0.008 µM
17 | CAL-39 (cervix, adherent) | 0.984 | > 0.5 µM | 0.986 | > 20 µM | 0.984 | > 5 µM | 0.984 | > 0.008 µM
18 | NCI-H2444 (non-small cell lung carcinoma, adherent) | 0.987 | > 0.5 µM | 0.98 | > 20 µM | 0.987 | > 5 µM | 0.988 | > 0.008 µM
19 | NH-12 (neuroblastoma, adherent) | – | – | 0.98 | > 20 µM | 0.984 | > 5 µM | 0.983 | > 0.008 µM

Row | Cell Line | AUC (SGC0946) | IC50 (SGC0946) | AUC (GW-2580) | IC50 (GW-2580) | AUC (Lenalidomide) | IC50 (Lenalidomide) | AUC (Bryostatin 1) | IC50 (Bryostatin 1)
20 | 201T (lung adenocarcinoma, adherent) | – | – | 0.98 | > 20 µM | 0.981 | > 5 µM | 0.841 | 0.00773 µM
21 | MSTO-211H (mesothelioma, adherent) | – | – | 0.988 | > 20 µM | 0.924 | > 5 µM | 0.99 | > 0.008 µM
22 | GMS-10 (glioma, adherent) | – | – | 0.987 | > 20 µM | 0.988 | > 5 µM | 0.987 | > 0.008 µM
23 | PFSK-1 (medulloblastoma, adherent) | – | – | 0.985 | > 20 µM | 0.976 | > 5 µM | 0.986 | > 0.008 µM
24 | KP-1N (pancreas, adherent) | 0.97 | > 0.5 µM | – | – | 0.961 | > 5 µM | 0.971 | > 0.008 µM
25 | AGS (stomach, adherent) | – | – | 0.981 | > 20 µM | 0.989 | > 5 µM | 0.982 | > 0.008 µM
26 | IM-9 (myeloma, suspension) | 0.988 | > 0.5 µM | – | – | 0.992 | > 5 µM | 0.99 | > 0.008 µM
27 | MHH-NB-11 (neuroblastoma, adherent) | – | – | 0.985 | > 20 µM | 0.955 | > 5 µM | 0.985 | > 0.008 µM
28 | MG-63 (osteosarcoma, adherent) | – | – | 0.976 | > 20 µM | 0.983 | > 5 µM | 0.978 | > 0.008 µM
29 | SCC90 (head and neck, adherent) | 0.974 | > 0.5 µM | – | – | 0.98 | > 5 µM | 0.953 | > 0.008 µM
30 | MKN28 (stomach, adherent) | – | – | 0.987 | > 20 µM | 0.981 | > 5 µM | 0.987 | > 0.008 µM
31 | KYSE-410 (oesophagus, adherent) | – | – | 0.985 | > 20 µM | 0.958 | > 5 µM | 0.972 | > 0.008 µM
32 | DAN-G (pancreas, adherent) | – | – | 0.989 | > 20 µM | 0.988 | > 5 µM | 0.979 | > 0.008 µM
33 | VMRC-RCW (kidney, adherent) | – | – | 0.981 | > 20 µM | 0.981 | > 5 µM | 0.979 | > 0.008 µM
34 | FADU (head and neck, adherent) | – | – | 0.987 | > 20 µM | 0.988 | > 5 µM | 0.952 | > 0.008 µM
35 | NCI-H64 (small cell lung carcinoma, suspension) | – | – | 0.993 | > 20 µM | 0.995 | > 5 µM | 0.996 | > 0.008 µM
36 | PA-1 (ovary, adherent) | – | – | 0.987 | > 20 µM | 0.991 | > 5 µM | 0.993 | > 0.008 µM
37 | JHU-011 (head and neck, adherent) | – | – | 0.986 | > 20 µM | 0.966 | > 5 µM | 0.983 | > 0.008 µM
38 | A2058 (melanoma, adherent) | – | – | 0.989 | > 20 µM | 0.953 | > 5 µM | 0.966 | > 0.008 µM

Row | Cell Line | AUC (SGC0946) | IC50 (SGC0946) | AUC (GW-2580) | IC50 (GW-2580) | AUC (Lenalidomide) | IC50 (Lenalidomide) | AUC (Bryostatin 1) | IC50 (Bryostatin 1)
39 | EHEB (lymphoid neoplasm, suspension) | 0.966 | > 0.5 µM | – | – | 0.977 | > 5 µM | 0.978 | > 0.008 µM
40 | KMRC-1 (kidney, adherent) | – | – | 0.978 | > 20 µM | 0.983 | > 5 µM | 0.983 | > 0.008 µM
41 | HuP-T4 (pancreas, adherent) | – | – | 0.981 | > 20 µM | 0.982 | > 5 µM | 0.969 | > 0.008 µM
42 | PANC-04-03 (pancreas, adherent) | – | – | 0.963 | > 20 µM | 0.96 | > 5 µM | 0.952 | > 0.008 µM
43 | HCC2998 (large intestine, adherent) | – | – | 0.988 | > 20 µM | 0.963 | > 5 µM | 0.988 | > 0.008 µM
44 | C-4-I (cervix, adherent) | – | – | 0.983 | > 20 µM | 0.986 | > 5 µM | 0.983 | > 0.008 µM
45 | JHU-029 (head and neck, adherent) | 0.977 | > 0.5 µM | – | – | 0.969 | > 5 µM | 0.928 | > 0.008 µM
46 | BT-474 (breast, adherent) | 0.984 | > 0.5 µM | – | – | 0.976 | > 5 µM | 0.985 | > 0.008 µM
47 | CAPAN-1 (pancreas, adherent) | – | – | 0.986 | > 20 µM | 0.986 | > 5 µM | 0.984 | > 0.008 µM
48 | STS-0421 (soft tissue, adherent) | 0.98 | > 0.5 µM | – | – | 0.983 | > 5 µM | 0.942 | > 0.008 µM
49 | NB69 (neuroblastoma, adherent) | – | – | 0.989 | > 20 µM | 0.972 | > 5 µM | 0.988 | > 0.008 µM
50 | HT55 (large intestine, adherent) | – | – | 0.99 | > 20 µM | 0.99 | > 5 µM | 0.842 | 0.00556 µM
51 | DMS-273 (small cell lung carcinoma, adherent) | – | – | 0.951 | > 20 µM | 0.985 | > 5 µM | 0.944 | > 0.008 µM
52 | IGR-1 (melanoma, adherent) | – | – | 0.99 | > 20 µM | 0.99 | > 5 µM | 0.942 | > 0.008 µM
53 | NCI-H2052 (mesothelioma, adherent) | – | – | 0.982 | > 20 µM | 0.982 | > 5 µM | 0.98 | > 0.008 µM
54 | DOHH-2 (B-cell lymphoma, suspension) | – | – | – | – | 0.98 | > 5 µM | 0.944 | > 0.008 µM
55 | NCI-H1734 (lung adenocarcinoma, adherent) | – | – | 0.985 | > 20 µM | 0.984 | > 5 µM | 0.976 | > 0.008 µM
56 | AU565 (breast, adherent) | – | – | 0.976 | > 20 µM | 0.984 | > 5 µM | 0.972 | > 0.008 µM
